# Source: the supplement of paper PMC8728848
# The other results are listed elsewhere or left out.
# B1: XL-35 (Xenopus laevis) (protein)
# chain: MLVHILLLLVTGGLSQSCDPVVIVASKNMVKQLDCDKFRNCKEIKDSNEEAQDGIYTLTSPDGISYQTFCDMTTNGGGWTLVASVHENNMAGKCTIGDRWSSQQGNRADYPEGDGNWANYNTFGSAGGATSDDYKNPGYYDIEAYNLGVWHVPNKTPLSVWRNSSLQRYRTTDGILFKHGGNLFSLYRIYPVKYGIGSCSKDSGPTVPVVYDLGSANLTASFYSPGFRSQFTPGYIQFRPINTEKAALALCPGMKMESCNVEHVCIGGGGYFPEADPRQCGDFAAYDFNGYGTKKFNSAGIEITEAAVLLFYL
# Legend:
# Assay in all cases: glycan array binding signal (z-score within array); higher = stronger binding
# Conditions in all cases: glycan notation: IUPAC condensed, linker removed
# [1] = biological target: GlcNAc(b1-2)Man(a1-3)[GlcNAc(b1-4)][GlcNAc(b1-2)Man(a1-6)]Man(b1-4)GlcNAc(b1-4)GlcNAc
# In short: (§1)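 From the Consortium for Functional Glycomics database, 3228 arrays were curated, keeping only those whose protein sequence was available. Binding is given as a within-array Z-score averaged across arrays sharing a protein sequence and across linkers. Negative Z-scores can be read as non-binding.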
# [2] = biological target: GlcNAc(b1-2)Man(a1-3)[GlcNAc(b1-4)][GlcNAc(b1-2)Man(a1-6)]Man(b1-4)GlcNAc(b1-4)[Fuc(a1-6)]GlcNAc
# In short: as §1
# [3] = biological target: GlcNAc(b1-2)[GlcNAc(b1-4)]Man(a1-3)[GlcNAc(b1-2)Man(a1-6)]Man(b1-4)GlcNAc(b1-4)GlcNAc
# In short: as §1
# [4] = biological target: GlcNAc(b1-2)[GlcNAc(b1-4)]Man(a1-3)[GlcNAc(b1-4)][GlcNAc(b1-2)Man(a1-6)]Man(b1-4)GlcNAc(b1-4)GlcNAc
# In short: as §1
# [5] = biological target: GlcNAc(b1-2)[GlcNAc(b1-4)]Man(a1-3)[GlcNAc(b1-4)][GlcNAc(b1-2)[GlcNAc(b1-6)]Man(a1-6)]Man(b1-4)GlcNAc(b1-4)GlcNAc
# In short: as §1
# [6] = biological target: GlcNAc(b1-2)[GlcNAc(b1-4)]Man(a1-3)[GlcNAc(b1-4)][GlcNAc(b1-2)[GlcNAc(b1-6)]Man(a1-6)]Man(b1-4)GlcNAc(b1-4)[Fuc(a1-6)]GlcNAc
# In short: as §1
# [7] = biological target: GlcNAc(b1-2)[GlcNAc(b1-6)]Man(a1-6)[GlcNAc(b1-2)Man(a1-3)]Man(b1-4)GlcNAc(b1-4)GlcNAc
# In short: as §1
# [8] = biological target: GlcNAc(b1-2)[GlcNAc(b1-6)]Man(a1-6)[GlcNAc(b1-2)Man(a1-3)]Man(b1-4)GlcNAc(b1-4)[Fuc(a1-6)]GlcNAc
# In short: as §1
# [9] = biological target: GlcNAc(b1-2)[GlcNAc(b1-6)]Man(a1-6)[GlcNAc(b1-4)][GlcNAc(b1-2)Man(a1-3)]Man(b1-4)GlcNAc(b1-4)GlcNAc
# In short: as §1
# [10] = biological target: GlcNAc(b1-3)Fuc
# In short: as §1
# [11] = biological target: GlcNAc(b1-3)Gal
# In short: as §1
# [12] = biological target: GlcNAc(b1-3)Gal(b1-3)GalNAc
# In short: as §1
# [13] = biological target: GlcNAc(b1-3)Gal(b1-4)Glc
# In short: as §1
# [14] = biological target: GlcNAc(b1-3)Gal(b1-4)GlcNAc
# In short: as §1
# [15] = biological target: GlcNAc(b1-3)Gal(b1-4)GlcNAc(b1-2)Man(a1-3)[GlcNAc(b1-3)Gal(b1-4)GlcNAc(b1-2)Man(a1-6)]Man(b1-4)GlcNAc(b1-4)GlcNAc
# In short: as §1
# [16] = biological target: GlcNAc(b1-3)Gal(b1-4)GlcNAc(b1-2)Man(a1-3)[GlcNAc(b1-3)Gal(b1-4)GlcNAc(b1-2)Man(a1-6)]Man(b1-4)GlcNAc(b1-4)[Fuc(a1-6)]GlcNAc
# In short: as §1
# [17] = biological target: GlcNAc(b1-3)Gal(b1-4)GlcNAc(b1-2)[GlcNAc(b1-3)Gal(b1-4)GlcNAc(b1-6)]Man(a1-6)[GlcNAc(b1-3)Gal(b1-4)GlcNAc(b1-2)Man(a1-3)]Man(b1-4)GlcNAc(b1-4)GlcNAc
# In short: as §1
# [18] = biological target: GlcNAc(b1-3)Gal(b1-4)GlcNAc(b1-3)Gal(b1-4)GlcNAc
# In short: as §1
# [19] = biological target: GlcNAc(b1-3)Gal(b1-4)GlcNAc(b1-3)Gal(b1-4)GlcNAc(b1-2)Man(a1-3)[GlcNAc(b1-3)Gal(b1-4)GlcNAc(b1-3)Gal(b1-4)GlcNAc(b1-2)Man(a1-6)]Man(b1-4)GlcNAc(b1-4)GlcNAc
# In short: as §1
# [20] = biological target: GlcNAc(b1-3)Gal(b1-4)GlcNAc(b1-3)Gal(b1-4)GlcNAc(b1-2)Man(a1-3)[GlcNAc(b1-3)Gal(b1-4)GlcNAc(b1-3)Gal(b1-4)GlcNAc(b1-2)Man(a1-6)]Man(b1-4)GlcNAc(b1-4)[Fuc(a1-6)]GlcNAc
# In short: as §1
# [21] = biological target: GlcNAc(b1-3)Gal(b1-4)GlcNAc(b1-3)Gal(b1-4)GlcNAc(b1-2)[GlcNAc(b1-3)Gal(b1-4)GlcNAc(b1-3)Gal(b1-4)GlcNAc(b1-6)]Man(a1-6)[GlcNAc(b1-3)Gal(b1-4)GlcNAc(b1-3)Gal(b1-4)GlcNAc(b1-2)Man(a1-3)]Man(b1-4)GlcNAc(b1-4)[Fuc(a1-6)]GlcNAc
# In short: as §1
# [22] = biological target: GlcNAc(b1-3)Gal(b1-4)GlcNAc(b1-3)Gal(b1-4)GlcNAc(b1-3)Gal(b1-4)GlcNAc(b1-2)Man(a1-3)[GlcNAc(b1-3)Gal(b1-4)GlcNAc(b1-3)Gal(b1-4)GlcNAc(b1-3)Gal(b1-4)GlcNAc(b1-2)Man(a1-6)]Man(b1-4)GlcNAc(b1-4)GlcNAc
# In short: as §1
# [23] = biological target: GlcNAc(b1-3)Gal(b1-4)GlcNAc(b1-3)Gal(b1-4)GlcNAc(b1-3)Gal(b1-4)GlcNAc(b1-2)Man(a1-3)[GlcNAc(b1-3)Gal(b1-4)GlcNAc(b1-3)Gal(b1-4)GlcNAc(b1-3)Gal(b1-4)GlcNAc(b1-2)Man(a1-6)]Man(b1-4)GlcNAc(b1-4)[Fuc(a1-6)]GlcNAc
# In short: as §1
# [24] = biological target: GlcNAc(b1-3)Gal(b1-4)GlcNAc(b1-3)Gal(b1-4)GlcNAc(b1-3)Gal(b1-4)GlcNAc(b1-2)[GlcNAc(b1-3)Gal(b1-4)GlcNAc(b1-3)Gal(b1-4)GlcNAc(b1-3)Gal(b1-4)GlcNAc(b1-6)]Man(a1-6)[GlcNAc(b1-3)Gal(b1-4)GlcNAc(b1-3)Gal(b1-4)GlcNAc(b1-3)Gal(b1-4)GlcNAc(b1-2)Man(a1-3)]Man(b1-4)GlcNAc(b1-4)[Fuc(a1-6)]GlcNAc
# In short: as §1
# [25] = biological target: GlcNAc(b1-3)Gal(b1-4)GlcNAc(b1-3)Gal(b1-4)GlcNAc(b1-3)Gal(b1-4)GlcNAc(b1-3)Gal(b1-4)GlcNAc(b1-2)Man(a1-3)[GlcNAc(b1-3)Gal(b1-4)GlcNAc(b1-3)Gal(b1-4)GlcNAc(b1-3)Gal(b1-4)GlcNAc(b1-3)Gal(b1-4)GlcNAc(b1-2)Man(a1-6)]Man(b1-4)GlcNAc(b1-4)GlcNAc
# In short: as §1
# [26] = biological target: GlcNAc(b1-3)Gal(b1-4)GlcNAc(b1-3)Gal(b1-4)GlcNAc(b1-3)Gal(b1-4)GlcNAc(b1-3)Gal(b1-4)GlcNAc(b1-2)Man(a1-3)[GlcNAc(b1-3)Gal(b1-4)GlcNAc(b1-3)Gal(b1-4)GlcNAc(b1-3)Gal(b1-4)GlcNAc(b1-3)Gal(b1-4)GlcNAc(b1-2)Man(a1-6)]Man(b1-4)GlcNAc(b1-4)[Fuc(a1-6)]GlcNAc
# In short: as §1
# [27] = biological target: GlcNAc(b1-3)Gal(b1-4)GlcNAc(b1-3)Gal(b1-4)GlcNAc(b1-3)Gal(b1-4)GlcNAc(b1-3)Gal(b1-4)GlcNAc(b1-2)[GlcNAc(b1-3)Gal(b1-4)GlcNAc(b1-3)Gal(b1-4)GlcNAc(b1-3)Gal(b1-4)GlcNAc(b1-3)Gal(b1-4)GlcNAc(b1-6)]Man(a1-6)[GlcNAc(b1-3)Gal(b1-4)GlcNAc(b1-3)Gal(b1-4)GlcNAc(b1-3)Gal(b1-4)GlcNAc(b1-3)Gal(b1-4)GlcNAc(b1-2)Man(a1-3)]Man(b1-4)GlcNAc(b1-4)[Fuc(a1-6)]GlcNAc
# In short: as §1
# [28] = biological target: GlcNAc(b1-3)Gal(b1-4)GlcNAc(b1-3)Gal(b1-4)GlcNAc(b1-3)GalNAc
# In short: as §1
# [29] = biological target: GlcNAc(b1-3)Gal(b1-4)GlcNAc(b1-3)GalNAc
# In short: as §1
# [30] = biological target: GlcNAc(b1-3)Gal(b1-4)GlcNAc(b1-3)[GlcNAc(b1-3)Gal(b1-4)GlcNAc(b1-3)]GalNAc
# In short: as §1
# [31] = biological target: GlcNAc(b1-3)Gal(b1-4)GlcNAc(b1-6)[Gal(b1-3)]GalNAc
# In short: as §1
# [32] = biological target: GlcNAc(b1-3)Gal(b1-4)GlcNAc(b1-6)[GlcNAc(b1-3)Gal(b1-3)]GalNAc
# In short: as §1
# [33] = biological target: GlcNAc(b1-3)Gal(b1-4)GlcNAc(b1-6)[GlcNAc(b1-3)]Gal(b1-4)GlcNAc
# In short: as §1
# [34] = biological target: GlcNAc(b1-3)GalNAc
# In short: as §1
# [35] = biological target: GlcNAc(b1-3)Man
# In short: as §1
# [36] = biological target: GlcNAc(b1-3)[GlcNAc(b1-4)][GlcNAc(b1-6)]GlcNAc
# In short: as §1
# [37] = biological target: GlcNAc(b1-3)[GlcNAc(b1-6)]Gal(b1-4)GlcNAc
# In short: as §1
binder,measurement,setting,value
B1,glycan array binding signal (z-score),[1],-0.444
same,glycan array binding signal (z-score),[2],-0.371
same,glycan array binding signal (z-score),[3],-0.163
same,glycan array binding signal (z-score),[4],-0.191
same,glycan array binding signal (z-score),[5],-0.301
same,glycan array binding signal (z-score),[6],0.316
same,glycan array binding signal (z-score),[7],-0.319
same,glycan array binding signal (z-score),[8],0.025
same,glycan array binding signal (z-score),[9],0.53
same,glycan array binding signal (z-score),[10],-0.221
same,glycan array binding signal (z-score),[11],-0.296
same,glycan array binding signal (z-score),[12],-0.105
same,glycan array binding signal (z-score),[13],-0.172
same,glycan array binding signal (z-score),[14],-0.151
same,glycan array binding signal (z-score),[15],0.013
same,glycan array binding signal (z-score),[16],0.112
same,glycan array binding signal (z-score),[17],0.95
same,glycan array binding signal (z-score),[18],-0.183
same,glycan array binding signal (z-score),[19],0.378
same,glycan array binding signal (z-score),[20],-0.169
same,glycan array binding signal (z-score),[21],0.656
same,glycan array binding signal (z-score),[22],-0.145
same,glycan array binding signal (z-score),[23],0.253
same,glycan array binding signal (z-score),[24],0.624
same,glycan array binding signal (z-score),[25],-0.054
same,glycan array binding signal (z-score),[26],-0.435
same,glycan array binding signal (z-score),[27],0.094
same,glycan array binding signal (z-score),[28],0.027
same,glycan array binding signal (z-score),[29],-0.289
same,glycan array binding signal (z-score),[30],-0.306
same,glycan array binding signal (z-score),[31],-0.266
same,glycan array binding signal (z-score),[32],-0.324
same,glycan array binding signal (z-score),[33],0.558
same,glycan array binding signal (z-score),[34],-0.048
same,glycan array binding signal (z-score),[35],-0.034
same,glycan array binding signal (z-score),[36],-0.056
same,glycan array binding signal (z-score),[37],-0.01
